Several values for one entry are separate records, joined by “and”; a condition that tells them apart may be missing. Identical values can stand only once. Counter-ions that a name gives are not always drawn. ± gives the standard deviation of the averaged measurements. Over roughly 3,200 compounds, “nuclei count (viability) relative to DMSO” has its median near 99; the lowest 2% begin near 16. The list shows a part of the results.
Tested on: U2OS
Experiment: nuclei count (viability) relative to DMSO (% of DMSO); higher = more viable cells
Conditions: 10 µM; 24 h
Procedure: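 Primary image-based screen in U2OS cells: compounds at 10 uM for 24 h, then a 1 h o-propargyl-puromycin (OPP) pulse, click labelling, and high-throughput microscopy. Mean cytoplasmic OPP intensity and nuclei count were normalised to DMSO wells within each plate (DMSO = 100) and averaged over triplicate plates.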

Structure (SMILES) | nuclei count
Nc1ncnc2c1ncn2[C@@H]1O[C@H](COP(=O)(O)OP(=O)(O)OP(=O)(O)O)[C@@H](O)[C@H]1O [ATP (Adenosine-Triphosphate)] | 106
CC(=O)[C@H]1CC[C@H]2[C@@H]3C[C@H](C)C4=CC(=O)CC[C@]4(C)[C@H]3[C@@H](O)C[C@]12C [Medrysone] | 108
CCOC(=O)OC(C)OC1=C(C(=O)Nc2ccccn2)N(C)S(=O)(=O)c2ccccc21 (centres undefined) [Ampiroxicam] | 101
O=C(Nc1c(Cl)cncc1Cl)c1ccc(OC(F)F)c(OCC2CC2)c1 [Roflumilast (Daxas)] | 102
CCCS(=O)(=O)Nc1ccc(F)c(C(=O)c2c[nH]c3ncc(-c4ccc(Cl)cc4)cc23)c1F [Vemurafenib (PLX4032)] | 104 ± 5.7
C[C@@H]1O[C@@H](O[C@H]2[C@H](Oc3cc(O)c(C(=O)CCc4ccc(O)cc4)c(O)c3)O[C@H](CO)[C@@H](O)[C@@H]2O)[C@H](O)[C@H](O)[C@H]1O [Naringin Dihydrochalcone (Naringin DC)] | 96.5
C[N+](C)([O-])CCNc1ccc(NCC[N+](C)(C)[O-])c2c1C(=O)c1c(O)ccc(O)c1C2=O [Banoxantrone dihydrochloride] | 51.2
CCCCNC(=O)NS(=O)(=O)c1ccc(C)cc1 [Tolbutamide] | 95.6 ± 7.2
O=C(O)c1cc(-c2ccc(F)cc2F)ccc1O [Diflunisal] | 105
c1ccc2c(-c3ccncc3)c[nH]c2c1 [Rockout] | 105
CC(C)(C)NC[C@H](O)c1ccc(O)c(CO)c1 [Levalbuterol hydrochloride] | 108
CCn1cc(C(=O)O)c(=O)c2cnc(N3CCCC3)nc21 [Piromidic acid] | 100
COc1ccc(Nc2ncnc3ccc(OC)cc23)cc1 [MPMQ hydrochloride] | 106
O=S(=O)(O)CCS [Mesna] | 107
Cc1nc(NC(=O)N2CCC[C@H]2C(N)=O)sc1-c1ccnc(C(C)(C)C(F)(F)F)c1 | 82.8 ± 5.8
COc1ccc2cc([C@@H](C)C(=O)O)ccc2c1 [(R) -Naproxen sodium salt] | 101
Nc1nc(=O)c2c([nH]1)NC[C@@H](CNc1ccc(C(=O)N[C@@H](CCC(=O)O)C(=O)O)cc1)N2C=O [Folinic acid calcium salt] | 84.6
CC(C)NCC(O)COc1cccc2ccccc12 (centres undefined) [Propranolol hydrochloride] | 103
CCCCC(CC)CNC(=N)NC(=N)NCCCCCCNC(=N)NC(=N)NCC(CC)CCCC (centres undefined) [Alexidine dihydrochloride] | 6.87
Oc1c2ccccc2c2c3c(cccc13)N=N2 | 73.8 and 92.7
COC(=O)[C@@H]1[C@H]2C[C@H]3c4[nH]c5ccccc5c4CCN3C[C@@H]2CC[C@@H]1O [Yohimbine hydrochloride] | 103 ± 2
CC(C)C[C@H](NC(=O)[C@H]1O[C@@H]1C(=O)O)C(=O)NCCCCN=C(N)N | 94.5
Cc1[nH]c(/C=C2\C(=O)Nc3ccc(S(=O)(=O)N(C)c4cccc(Cl)c4)cc32)c(C)c1C(=O)N1CCN(C)CC1 | 52.4
CN(C)Cc1ccc(-c2nc3cccc4c3n2CCNC4=O)cc1 | 81
CC1(C)NC(=O)N(c2ccc([N+](=O)[O-])c(C(F)(F)F)c2)C1=O [Nilutamide] | 113 ± 9.4

Structure (SMILES) | nuclei count
N[C@@H](CC(=O)Nc1ccc(Oc2cc(F)c(F)cc2Br)cc1)C(=O)O | 103
Cc1coc2c1C(=O)C(=O)c1c-2ccc2c(C)cccc12 [Tanshinone I] | 98.3
CCC1=C(C)CN(C(=O)NCCc2ccc(S(=O)(=O)NC(=O)N[C@H]3CC[C@H](C)CC3)cc2)C1=O [Glimepiride] | 102 ± 4.4
C[C@@]12C[C@@]3(O)O[C@@H](O1)[C@]1(COC(=O)c4ccccc4)[C@H]3C[C@@]12O[C@@H]1O[C@H](CO)[C@@H](O)[C@H](O)[C@H]1O [Paeoniflorin] | 95.6
CCS(=O)(=O)CCn1c([N+](=O)[O-])cnc1C [Tinidazole] | 109
N#C[C@@H]1C[C@@H]2C[C@@H]2N1C(=O)[C@@H](N)C12CC3CC(CC(O)(C3)C1)C2 | 104
O=C1CCc2cc(OCCCCc3nnnn3C3CCCCC3)ccc2N1 [Cilostazol] | 107 ± 6.1
O=P(O)(O)C(Cl)(Cl)P(=O)(O)O [Clodronate] | 104
Oc1ccc(-c2nc3cc(O)cc(Br)c3o2)cc1 | 96.3
CCCCOc1cc(C(=O)NCCN(CC)CC)c2ccccc2n1 [Dibucaine] | 101
C[C@H](CC[C@@H]1OC1(C)C)[C@H]1CC[C@H]2[C@@H]3CC=C4C[C@@H](O)CC[C@]4(C)[C@H]3CC[C@]12C [24(S),25-Epoxycholesterol] | 107
COc1ccc2cc1Oc1ccc(cc1)C[C@H]1c3cc(c(OC)cc3CCN1C)Oc1c(OC)c(OC)cc3c1[C@H](C2)N(C)CC3 [Tetrandrine (Fanchinine)] | 101
COc1ccc2cc1Oc1ccc(cc1)C[C@H]1c3cc(c(OC)cc3CCN1C)Oc1c(OC)c(OC)cc3c1[C@H](C2)N(C)CC3 [Tetrandrine] | 96.9
Cc1c[nH]c(=O)n(CCCN2CCN(c3ccccc3OCC(F)(F)F)CC2)c1=O | 105
Nc1ncnc2c1c(-c1cnc3[nH]ccc3c1)nn2C1CCCC1 | 40.1
C[C@]12CC[C@@H]3c4ccc(O)cc4CC[C@H]3[C@@H]1CCC2=O [Estrone] | 96.6 ± 4.3
COC(=O)c1c(-c2cc(OC)c(OC)c(OC)c2)c2ccnc(OCc3ncccn3)c2c(=O)n1Cc1ccnc(C)c1 [T 0156 hydrochloride] | 107
c1ccc(N2CCN(Cc3nc4ccccc4[nH]3)CC2)nc1 [ABT 724 trihydrochloride] | 99.2
CN(C)[C@@H]1C(O)=C(C(N)=O)C(=O)[C@@]2(O)C(O)=C3C(=O)c4c(O)ccc(Cl)c4[C@@](C)(O)[C@H]3C[C@@H]12 [Chlortetracycline hydrochloride] | 93.4
CC(C)[C@H](N)C(=O)N[C@H](C(=O)N[C@H](C(=O)O)C(C)C)C(C)C | 90.3
CC(=O)N(CC(C)C(=O)O)c1c(I)cc(I)c(N)c1I (centres undefined) [Iocetamic acid] | 82.5
CCCCCCCCc1ccc(CCC(N)(CO)CO)cc1 [Fingolimod (FTY720)] | 18.9 ± 0.71
CCCCC(C)(O)C/C=C/[C@H]1[C@H](O)CC(=O)[C@@H]1CCCCCCC(=O)OC (mixture of isomers) [Misoprostol] | 103
CNCCC(Oc1ccccc1OC)c1ccccc1 (centres undefined) [Nisoxetine hydrochloride] | 93.6 ± 5.6
COc1ccccc1O [Guaiacol] | 101

Structure (SMILES) | nuclei count
O=NN(CCCl)C(=O)NC1CCCCC1 [Lomustine (CeeNU)] | 109
COc1cc(CCC(C)=O)ccc1O [Vanillylacetone] | 88.4
O=C(O)CCC(=O)Nc1ccc(S(=O)(=O)Nc2nccs2)cc1 [Succinylsulfathiazole] | 111
COc1cnc(NS(=O)(=O)c2ccc(N)cc2)nc1 [Sulfameter] | 103
Cn1cnnc1Sc1c([N+](=O)[O-])ncn1C | 108
Cc1cccc(CN2CCN(C(c3ccccc3)c3ccc(Cl)cc3)CC2)c1 (centres undefined) [Meclozine dihydrochloride] | 103
CC(C)c1cc(C(=O)N2Cc3ccc(CN4CCN(C)CC4)cc3C2)c(O)cc1O | 55.3
CCOC(=O)C1=C[C@]2(CC)CCCN3CCc4c(n1c1ccccc41)[C@@H]32 [Vinpocetine (Cavinton)] | 102
CCOC(=O)C1=C[C@]2(CC)CCCN3CCc4c(n1c1ccccc41)[C@@H]32 [Vinpocetine] | 97.5 ± 9.1
CS(=O)(=O)CCNCc1nc(-c2ccc3ncnc(Nc4ccc(OCc5cccc(F)c5)c(Cl)c4)c3c2)cs1 | 95.3
COc1ccc(-c2cc(=O)c3c(O)cc(O[C@@H]4O[C@H](CO[C@@H]5O[C@@H](C)[C@H](O)[C@@H](O)[C@H]5O)[C@@H](O)[C@H](O)[C@H]4O)cc3o2)cc1O [Diosmin] | 101 ± 1.4
COc1cc(Nc2ncc(F)c(Nc3ccc4c(n3)N(COP(=O)(O)O)C(=O)C(C)(C)O4)n2)cc(OC)c1OC | 69.4
COc1cc(Nc2ncc(F)c(Nc3ccc4c(n3)N(COP(=O)(O)O)C(=O)C(C)(C)O4)n2)cc(OC)c1OC [R788 (Fostamatinib)] | 26.9
Cc1nnc(C(C)C)n1C1C[C@H]2CC[C@@H](C1)N2CC[C@H](NC(=O)C1CCC(F)(F)CC1)c1ccccc1 (stereo in doubt) [Maraviroc] | 97.7
CCCCCCCN(CC)CCCC(O)c1ccc(NS(C)(=O)=O)cc1 (centres undefined) [Ibutilide fumarate] | 106
Cn1c(=O)cc(N2CCC[C@@H](N)C2)n(Cc2ccccc2C#N)c1=O [Alogliptin (SYR-322)] | 107
Cn1cc(-c2ccc3nnc(C(F)(F)c4ccc5ncccc5c4)n3n2)cn1 | 108
c1ccc2[nH]c(-c3cscn3)nc2c1 [Tiabendazole] | 108
CN1[C@@H](CC(=O)c2ccccc2)CCC[C@H]1C[C@H](O)c1ccccc1 [Lobeline hydrochloride] | 71.4
CCC(CC)CC1(C(=O)Nc2ccccc2SC(=O)C(C)C)CCCCC1 [Dalcetrapib (JTT-705)] | 84.5
COC1=C2C[C@@H](C)C[C@H](OC)[C@H](O)[C@@H](C)/C=C(\C)[C@H](OC(N)=O)[C@@H](OC)/C=C\C=C(/C)C(=O)NC(=CC1=O)C2=O [Geldanamycin] | 54 ± 5.5
CCOC(=O)c1ncc2[nH]c3cccc(OC(C)C)c3c2c1C | 95.3
CN1CC2c3ccccc3Oc3ccc(Cl)cc3C2C1 (centres undefined) [Asenapine] | 105
CN1CC2c3ccccc3Oc3ccc(Cl)cc3C2C1 (centres undefined) [Asenapine maleate] | 104 ± 13
